This is an account of results in ChEMBL document CHEMBL4888484, “Replenishing the malaria drug discovery pipeline: Screening and hit evaluation of the MMV Hit Generation Library 1 (HGL1) against asexual blood stage Plasmodium falciparum ,using a nano luciferase reporter read-out” (2022).

Hit rate of the full screen: of about 150,000 compounds, about 540 (0.36%) showed an effect of 50% or more. Some of the results follow.

In the experiment the test system is Plasmodium falciparum. Nature of the experiment: Primary screen in NF54 nanoGlo assay, in single point, at 2uM, 72h; a lower Z score goes with more inhibition. Format: functional, Erythrocyte. Conditions: timepoint 72 hour.
As a reminder, the % Inhibition is the drop in the measured response relative to a control, in per cent. Consider `Cc1ccc(-c2c(C)sc3nc(CO)cn23)cc1C`, for which the “% Inhibition” value is listed as -1% and the Z score was 0.12.
Consider `Cc1cccc(C2=CCN(C(=O)NCc3cnnn3C)CC2)c1C`, for which the “% Inhibition” value turned out to be 2% and the Z score is on record as -0.2.
The like results for `CC(O)C1CCN(C(=O)NCc2ccc3c(c2)CCC3)C1` (stereo not given) were, in that order, -10% and 1.24.
The like results for `C[C@@H]1CN(C(=O)C(C)(C)N2CCCC2)CC[C@@]1(O)C1CCOCC1` were, in that order, -6% and 0.98.
With `CN1CCN(C(=O)c2ccccc2N2CCC(NC(=O)CC(C)(C)C)CC2)CC1`, the “% Inhibition” value was -10% and the Z score is recorded as 0.99.
For `CCC(CC)C(=O)Nc1nc(C)c(C(=O)N(C)C)s1` the same measures were -10% and 1.43.
For the compound `CNc1nc(C(=O)NCc2nc(-c3ccc(F)cc3)c[nH]2)cs1`, the “% Inhibition” value is recorded as -15% and the Z score worked out at 1.53.
The like results for `COc1ccc(C(=O)N(CCC(=O)N2CCNCC2)CCC(C)C)cc1` were, in that order, 6% and -0.83.
Consider `CCc1ccc(-c2nccn2C[C@H](C)Oc2cccnc2)nc1`, for which the “% Inhibition” value is 1% and the Z score is reported as -0.15.
The like results for `CC(Cc1cccc(F)c1)C(=O)N1CCC[C@@H]1C(=O)O` (stereo not given in full) were, in that order, 2% and -0.24.
The like results for `CC1CCC(O)CN1C(=O)OC(C)(C)C` (stereo not given) were, in that order, 11% and -1.51.
For `COCCNC(=O)CC[C@]12CC[C@](C)(O)C[C@H]1C(C)(C)C[C@@H]2NC(=O)c1ccc(C(F)(F)F)cc1` the same measures were 9% and -1.04.
As to `Cc1nc(NC(=O)c2ocnc2C)cc(C2CC2)n1`, the “% Inhibition” value is reported as -11% and the Z score worked out at 1.18.
The like results for `O=C(NC[C@H]1CCCCS1(=O)=O)c1ccsc1` were, in that order, -6% and 1.16.
The like results for `O=C1CC[C@]2(CCCN(c3cc(C(F)(F)F)ccn3)C2)CN1C1CC1` were, in that order, 4% and -0.61.
As to `CC(=O)N1C[C@H]2CN(Cc3ccc(OC(F)(F)F)cc3)CC[C@@]2(c2nc(C)n[nH]2)C1`, the “% Inhibition” value was found to be 30% and the Z score was -3.35.
The like results for `Cc1ccc(-c2noc(-c3nnn(Cc4nc(-c5ccc(C)cc5)oc4C)c3C)n2)cc1` were, in that order, -10% and 1.4.
Turning to `CCc1cc(CC(=O)N2CCC(=O)N(C)c3ccccc32)n(C)n1`, the “% Inhibition” value is recorded as -9% and the Z score was found to be 1.38.
The like results for `CC(C)(C)OC(=O)N1CC2CC3CC2C1C3NCc1cc[nH]n1` (stereo not given) were, in that order, -11% and 1.5.
For `CC(C)Cc1noc(CN(C)Cc2noc(C3CC3)n2)n1` the same measures were -9% and 1.58.
The like results for `Cc1ccc(CNC(=O)c2nnn3c2CO[C@H](c2ccccc2)C3)o1` were, in that order, 2% and -0.21.
With `COc1ncc(NC(=O)Nc2ccccc2)c(N2CCCC2)n1`, the “% Inhibition” value was 25% and the Z score is -3.84.
The like results for `O=C(c1cncc(-n2ccnn2)c1)N1CCOc2c(Cl)cccc21` were, in that order, -7% and 1.
As to `COc1cc(-c2ccccc2)ccc1CN[C@H]1CCC(=O)NC1`, the “% Inhibition” value was -9% and the Z score is reported as 1.35.
For the compound `CC1CN(Cc2ccccc2)CCC1N(C)C(=O)c1ccc(CN)o1` (stereo not given), the “% Inhibition” value was determined as 4% and the Z score is listed as -0.51.
For the compound `O=C(COC(c1ccccc1)c1ccccc1)Nc1ccncc1`, the “% Inhibition” value amounted to 0% and the Z score was 0.05.
For `CCOc1ccc(NC(=O)N2CCc3c(c(=O)c4cc(C)cc(C)c4n3C)C2)cc1`, the “% Inhibition” value is listed as -1% and the Z score stood at 0.23.
For `Cc1nnc2ccc(-c3noc(-c4ccsc4)n3)cn12` the same measures were -13% and 2.3.
The like results for `Cc1ccc(-c2ccc(Oc3ccc(C(F)(F)F)cn3)c(C)c2)cc1` were, in that order, -7% and 0.97.
For `C[C@@H](c1ccccc1)N(Cc1cccc(Cl)c1)Cc1nc(C(=O)NCc2ccco2)co1` the same measures were 7% and -0.67.
Turning to `CC1CCN(Cc2cc(=O)n3ccccc3n2)CC1`, the “% Inhibition” value is -4% and the Z score came out at 0.52.
The like results for `CCc1nc(CN(C)Cc2csc(C)n2)cs1` were, in that order, -17% and 2.65.
The like results for `Cc1ccccc1CC1(NC(=O)CCO)CC1` were, in that order, -2% and 0.28.
For `CC(C)Oc1ccc(C(=O)N2C[C@@H](CN3CCN(C)CC3)[C@@H](CO)C2)cc1` the same measures were -9% and 1.35.
With `COc1ccccc1CC(C)CC(=O)N1CCCC1C(=O)O` (stereo not given), the “% Inhibition” value was 1% and the Z score is -0.08.
The like results for `CCN1CCN(c2c(CN(CC(C)C)C(=O)c3cccc(OC)c3)c(C)nn2-c2ccccc2)CC1` were, in that order, -5% and 0.73.
With `O=C(Cn1cnc2c(c1=O)CCCC2)NCc1ccccc1Cl`, the “% Inhibition” value worked out at 0% and the Z score worked out at 0.03.
For `Brc1cc2c(cc1Cn1cc(-c3cnn(Cc4cc5c(cc4Br)OCCO5)c3)cn1)OCCO2` the same measures were -4% and 0.64.
The like results for `O=C(Cc1cccc2ccccc12)N1CCCC[C@@H]1CCN1CCCCC1` were, in that order, 4% and -0.54.
For `CO[C@H]1CCN(c2cc(C(C)C)nc3ncnn23)CC1(C)C` the same measures were -2% and 0.37.
For the compound `Cn1cc(S(=O)(=O)N2CCCCCC2)cc1C(=O)NCc1ccccc1Cl`, the “% Inhibition” value is -12% and the Z score is recorded as 1.64.
The like results for `C[C@@H](C(=O)NC(N)=O)N1CCOc2ccccc2C1` were, in that order, -14% and 2.15.
Turning to `CCOc1cncc(CNc2cnc3[nH]nc(C)c3c2)c1`, the “% Inhibition” value is given as -11% and the Z score was 2.07.
The like results for `CC(=O)c1ccc(C(=O)N2CCC[C@@]3(CCC(=O)N(CCO)C3)C2)cc1` were, in that order, -4% and 0.7.
`CS(=O)(=O)c1ccc(NC2CC3CC3C2)nc1` (stereo not given): the “% Inhibition” value amounted to 8% and the Z score is recorded as -1.14.
For `O=C(NCc1nc2ccccc2n1C1CC1)c1ccc(O)nc1` the same measures were -8% and 0.83.
For `C[C@H](Oc1ccccc1CN1CC(c2ccncc2)C1)C(=O)O` the same measures were -14% and 1.94.
For `CCCNC(=O)CNC(=O)Cc1ccc(OC)cc1` the same measures were -12% and 1.62.
For `CC(C)n1ncc2cc(CNc3ncccc3OC(F)F)cnc21`, the “% Inhibition” value is on record as -10% and the Z score was 0.99.
Regarding `Cc1ccc(C)c(CN2CCC3(CCC(=O)N(C4CC4)C3)CC2)c1`, the “% Inhibition” value was -16% and the Z score came out at 2.12.
For `O=C(c1ncnc2ccsc12)N1CCc2nc[nH]c2C1`, the “% Inhibition” value is given as -9% and the Z score was 1.75.
For `CNS(=O)(=O)CC(=O)NC(C)(C)c1ccc(F)cc1Cl` the same measures were 1% and -0.1.
The like results for `Nc1n[nH]c2c1CCN(Cc1ccccc1)C2` were, in that order, -15% and 1.97.
`O=C(Cn1ncnn1)NCC1(c2ccc(Cl)cc2Cl)CCC1`: the “% Inhibition” value is given as -13% and the Z score is given as 1.34.
For `CS(=O)(=O)CCc1ccc(N[C@H]2CCc3ccc(F)cc32)cc1` the same measures were -8% and 1.03.
